# Laboratory results reported in the supplement of paper PMC8728848.
# Some of the results follow.
# Experiments:
# Test in all cases: glycan array binding signal (z-score within array); higher = stronger binding
# Conditions in all cases: glycan notation: IUPAC condensed, linker removed
# [1] = molecular target: Gal(b1-3)GlcNAc(b1-6)[Gal(b1-3)]GalNAc
# Procedure, shortened: (§1)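 Columns mapping to the same glycan were averaged after glycan names were converted to IUPAC-condensed notation. The data come from 3228 arrays in the Consortium for Functional Glycomics database, limited to those with an available protein sequence. Binding is reported as a within-array Z-score averaged across arrays of one protein sequence and across linkers.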
# [2] = molecular target: Gal(b1-3)GlcNAc6S
# Procedure, shortened: as §1
# [3] = molecular target: Gal(b1-3)[Fuc(a1-4)]GlcNAc
# Procedure, shortened: as §1
# [4] = molecular target: Gal(b1-3)[Fuc(a1-4)]GlcNAc(b1-2)Man
# Procedure, shortened: as §1
# [5] = molecular target: Gal(b1-3)[Fuc(a1-4)]GlcNAc(b1-2)Man(a1-3)[Gal(b1-3)[Fuc(a1-4)]GlcNAc(b1-2)Man(a1-6)]Man(b1-4)GlcNAc(b1-4)[Fuc(a1-6)]GlcNAc
# Procedure, shortened: as §1
# [6] = molecular target: Gal(b1-3)[Fuc(a1-4)]GlcNAc(b1-3)Gal(b1-3)[Fuc(a1-4)]GlcNAc
# Procedure, shortened: as §1
# [7] = molecular target: Gal(b1-3)[Fuc(a1-4)]GlcNAc(b1-3)Gal(b1-4)[Fuc(a1-3)]GlcNAc
# Procedure, shortened: as §1
# [8] = molecular target: Gal(b1-3)[Fuc(a1-4)]GlcNAc(b1-6)GalNAc
# Procedure, shortened: as §1
# [9] = molecular target: Gal(b1-3)[GlcNAc(b1-6)]GalNAc
# Procedure, shortened: as §1
# [10] = molecular target: Gal(b1-3)[Neu5Ac(a2-6)]GalNAc
# Procedure, shortened: as §1
# [11] = molecular target: Gal(b1-3)[Neu5Ac(a2-6)]GlcNAc(b1-4)Gal(b1-4)Glc
# Procedure, shortened: as §1
# [12] = molecular target: Gal(b1-3)[Neu5Ac(b2-6)]GalNAc
# Procedure, shortened: as §1
# [13] = molecular target: Gal(b1-4)Gal
# Procedure, shortened: as §1
# [14] = molecular target: Gal(b1-4)GalNAc(a1-3)[Fuc(a1-2)]Gal(b1-4)GlcNAc
# Procedure, shortened: as §1
# [15] = molecular target: Gal(b1-4)GalNAc(b1-3)[Fuc(a1-2)]Gal(b1-4)GlcNAc
# Procedure, shortened: as §1
# [16] = molecular target: Gal(b1-4)Glc
# Procedure, shortened: as §1
# [17] = molecular target: Gal(b1-4)Glc6S
# Procedure, shortened: as §1
# [18] = molecular target: Gal(b1-4)GlcNAc
# Procedure, shortened: as §1
# [19] = molecular target: Gal(b1-4)GlcNAc(a1-6)Gal(b1-4)GlcNAc
# Procedure, shortened: as §1
# [20] = molecular target: Gal(b1-4)GlcNAc(b1-2)Man
# Procedure, shortened: as §1
# [21] = molecular target: Gal(b1-4)GlcNAc(b1-2)Man(a1-3)Man(b1-4)GlcNAc(b1-4)GlcNAc
# Procedure, shortened: as §1
# [22] = molecular target: Gal(b1-4)GlcNAc(b1-2)Man(a1-3)[Gal(b1-4)GlcNAc(b1-2)Man(a1-6)]Man(b1-4)GlcNAc(b1-4)GlcNAc
# Procedure, shortened: as §1
# [23] = molecular target: Gal(b1-4)GlcNAc(b1-2)Man(a1-3)[Gal(b1-4)GlcNAc(b1-2)Man(a1-6)]Man(b1-4)GlcNAc(b1-4)[Fuc(a1-6)]GlcNAc
# Procedure, shortened: as §1
# [24] = molecular target: Gal(b1-4)GlcNAc(b1-2)Man(a1-3)[Gal(b1-4)GlcNAc(b1-2)Man(a1-6)][Gal(b1-4)GlcNAc(b1-4)]Man(b1-4)GlcNAc(b1-4)[Fuc(a1-6)]GlcNAc
# Procedure, shortened: as §1
# [25] = molecular target: Gal(b1-4)GlcNAc(b1-2)Man(a1-3)[Gal(b1-4)GlcNAc(b1-2)Man(a1-6)][GlcNAc(b1-4)]Man(b1-4)GlcNAc(b1-4)[Fuc(a1-6)]GlcNAc
# Procedure, shortened: as §1
# [26] = molecular target: Gal(b1-4)GlcNAc(b1-2)Man(a1-3)[GlcNAc(b1-2)Man(a1-6)]Man(b1-4)GlcNAc(b1-4)GlcNAc
# Procedure, shortened: as §1
# [27] = molecular target: Gal(b1-4)GlcNAc(b1-2)Man(a1-3)[GlcNAc(b1-4)][Gal(b1-4)GlcNAc(b1-2)Man(a1-6)]Man(b1-4)GlcNAc(b1-4)GlcNAc
# Procedure, shortened: as §1
# [28] = molecular target: Gal(b1-4)GlcNAc(b1-2)Man(a1-3)[Man(a1-6)]Man(b1-4)GlcNAc(b1-4)GlcNAc
# Procedure, shortened: as §1
# [29] = molecular target: Gal(b1-4)GlcNAc(b1-2)Man(a1-6)Man(b1-4)GlcNAc(b1-4)GlcNAc
# Procedure, shortened: as §1
# [30] = molecular target: Gal(b1-4)GlcNAc(b1-2)Man(a1-6)[GlcNAc(b1-2)Man(a1-3)]Man(b1-4)GlcNAc(b1-4)GlcNAc
# Procedure, shortened: as §1
# [31] = molecular target: Gal(b1-4)GlcNAc(b1-2)Man(a1-6)[Man(a1-3)]Man(b1-4)GlcNAc(b1-4)GlcNAc
# Procedure, shortened: as §1
# [32] = molecular target: Gal(b1-4)GlcNAc(b1-2)[Gal(b1-4)GlcNAc(b1-4)]Man(a1-3)[Gal(b1-4)GlcNAc(b1-2)Man(a1-6)]Man(b1-4)GlcNAc(b1-4)GlcNAc
# Procedure, shortened: as §1
# [33] = molecular target: Gal(b1-4)GlcNAc(b1-2)[Gal(b1-4)GlcNAc(b1-4)]Man(a1-3)[Gal(b1-4)GlcNAc(b1-2)[Gal(b1-4)GlcNAc(b1-6)]Man(a1-6)]Man(b1-4)GlcNAc(b1-4)GlcNAc
# Procedure, shortened: as §1
# [34] = molecular target: Gal(b1-4)GlcNAc(b1-2)[Gal(b1-4)GlcNAc(b1-4)]Man(a1-3)[GlcNAc(b1-4)][Gal(b1-4)GlcNAc(b1-2)Man(a1-6)]Man(b1-4)GlcNAc(b1-4)GlcNAc
# Procedure, shortened: as §1
# [35] = molecular target: Gal(b1-4)GlcNAc(b1-2)[Gal(b1-4)GlcNAc(b1-4)]Man(a1-3)[GlcNAc(b1-4)][Gal(b1-4)GlcNAc(b1-2)[Gal(b1-4)GlcNAc(b1-6)]Man(a1-6)]Man(b1-4)GlcNAc(b1-4)GlcNAc
# Procedure, shortened: as §1
# [36] = molecular target: Gal(b1-4)GlcNAc(b1-2)[Gal(b1-4)GlcNAc(b1-6)]Man(a1-6)[Gal(b1-4)GlcNAc(b1-2)Man(a1-3)]Man(b1-4)GlcNAc(b1-4)GlcNAc
# Procedure, shortened: as §1
# [37] = molecular target: Gal(b1-4)GlcNAc(b1-2)[Gal(b1-4)GlcNAc(b1-6)]Man(a1-6)[Gal(b1-4)GlcNAc(b1-2)Man(a1-3)]Man(b1-4)GlcNAc(b1-4)[Fuc(a1-6)]GlcNAc
# Procedure, shortened: as §1
binder,measurement,setting,value
Cohesin-mDC-ASGPR (Macaca mulatta) (protein) LDITSHHHHHHDDLDAVRIKVDTVNAKPGDTVRIPVRFSGIPSKGIANCDFVYSYDPNVLEIIEIEPGDIIVDPNPDKSFDTAVYPDRKIIVFLFAEDSGTGAYAITKDGVFATIVAKVKEGAPNGLSVIKFVEVGGFANNDLVEQKTQFFDGGVNVGDTTEPATPTTPVTTPTTTDDLDAASSQNSKFQRDLVTLRTDFSNFTSNTVAEIQALTSQGSSVEEMIASLKAEVEVIKQEQQAVHSEMLLRVQRLMQDLNKLTCQVATLKNNASTERTCCPVNWVEHQDSCYWFSRSGMPWAEAEKHCQLENAHLVVINSREEQNFVQEHLSFAYTWMGLSDREGAWKWVDGTDYETGFQNWKPGQPDDWQGHGLGGGEDCAHFHPDGRWNDDVCQRPYYWVCEAGLTQASQESH,glycan array binding signal (z-score),[1],-0.141
same,glycan array binding signal (z-score),[2],-0.349
same,glycan array binding signal (z-score),[3],-0.366
same,glycan array binding signal (z-score),[4],-0.044
same,glycan array binding signal (z-score),[5],0.065
same,glycan array binding signal (z-score),[6],-0.41
same,glycan array binding signal (z-score),[7],-0.418
same,glycan array binding signal (z-score),[8],3.02
same,glycan array binding signal (z-score),[9],0.805
same,glycan array binding signal (z-score),[10],-0.372
same,glycan array binding signal (z-score),[11],-0.393
same,glycan array binding signal (z-score),[12],-0.434
same,glycan array binding signal (z-score),[13],-0.423
same,glycan array binding signal (z-score),[14],-0.408
same,glycan array binding signal (z-score),[15],-0.304
same,glycan array binding signal (z-score),[16],-0.379
same,glycan array binding signal (z-score),[17],-0.419
same,glycan array binding signal (z-score),[18],-0.405
same,glycan array binding signal (z-score),[19],-0.378
same,glycan array binding signal (z-score),[20],-0.012
same,glycan array binding signal (z-score),[21],-0.397
same,glycan array binding signal (z-score),[22],-0.425
same,glycan array binding signal (z-score),[23],-0.425
same,glycan array binding signal (z-score),[24],-0.393
same,glycan array binding signal (z-score),[25],-0.422
same,glycan array binding signal (z-score),[26],-0.411
same,glycan array binding signal (z-score),[27],-0.434
same,glycan array binding signal (z-score),[28],0.009
same,glycan array binding signal (z-score),[29],-0.406
same,glycan array binding signal (z-score),[30],-0.344
same,glycan array binding signal (z-score),[31],-0.429
same,glycan array binding signal (z-score),[32],-0.431
same,glycan array binding signal (z-score),[33],-0.427
same,glycan array binding signal (z-score),[34],-0.397
same,glycan array binding signal (z-score),[35],-0.406
same,glycan array binding signal (z-score),[36],-0.394
same,glycan array binding signal (z-score),[37],-0.418
